# According to the BET-seq Pho4 binding data (Le et al. 2018):
# The other results are listed elsewhere or left out. Values were computed here from the reads of four pooled replicates and scatter widely.
# Biological target: T1, Pho4 (S. cerevisiae) (UniProt P07270)
# T1 sequence: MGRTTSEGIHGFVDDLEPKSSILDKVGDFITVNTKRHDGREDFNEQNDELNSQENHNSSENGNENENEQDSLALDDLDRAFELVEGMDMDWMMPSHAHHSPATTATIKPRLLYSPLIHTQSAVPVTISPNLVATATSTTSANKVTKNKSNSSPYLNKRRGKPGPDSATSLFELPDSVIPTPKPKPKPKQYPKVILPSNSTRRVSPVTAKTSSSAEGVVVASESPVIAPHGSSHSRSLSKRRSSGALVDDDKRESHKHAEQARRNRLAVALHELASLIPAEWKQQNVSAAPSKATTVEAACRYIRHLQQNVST
# Test: relative binding free energy (BET-seq); higher = weaker binding
# Settings: reference: library average
row,Sequence,relative binding free energy
1,GGGAGCACGTGGTTGC,-0.1 kcal/mol
2,TTGCACACGTGGGGGT,0.01 kcal/mol
3,ACGTCCACGTGTGGGT,0.07 kcal/mol
4,TTATGCACGTGAAGTG,0.15 kcal/mol
5,GCTTGCACGTGAGCGG,0.17 kcal/mol
6,TATAGCACGTGTGTTG,-0.07 kcal/mol
7,TATGCCACGTGTTGGC,0.1 kcal/mol
8,ATCGTCACGTGGGTGA,-0.06 kcal/mol
9,GTGTCCACGTGGTACG,-0.02 kcal/mol
10,ACTGACACGTGGTGGT,-0.1 kcal/mol
11,ATTTTCACGTGCGGGT,0.33 kcal/mol
12,ATTTTCACGTGACGGG,0.36 kcal/mol
13,GACTTCACGTGTTGTA,0.26 kcal/mol
14,AGGGTCACGTGGTAGC,0 kcal/mol
15,GTATACACGTGCTGGG,-0.04 kcal/mol
16,TGTGTCACGTGTCTTT,0.19 kcal/mol
17,TTACGCACGTGTGGAT,-0.06 kcal/mol
18,GGGAGCACGTGCTAGT,-0.22 kcal/mol
19,TGCGGCACGTGAGTTG,0.12 kcal/mol
20,TATGGCACGTGAATAG,0.01 kcal/mol
21,AAGAGCACGTGGTATG,-0.06 kcal/mol
22,GTTAACACGTGTAATT,0.14 kcal/mol
23,TTTTGCACGTGTGTAA,0.15 kcal/mol

row,Sequence,relative binding free energy
1,GGGCGCACGTGATGCT,0.15 kcal/mol
2,GAGGGCACGTGGGTCG,-0.06 kcal/mol
3,TTTAGCACGTGGCGGA,-0.22 kcal/mol
4,AGTATCACGTGTGTGC,0.23 kcal/mol
5,GTTGCCACGTGTTATG,0.01 kcal/mol
6,TAGTACACGTGTGGAT,0.08 kcal/mol
7,CGGAACACGTGGGAGG,-0.07 kcal/mol
8,CTTAGCACGTGATGGA,0.06 kcal/mol
9,CGGGACACGTGGGTTG,-0.15 kcal/mol
10,TGGGACACGTGGGAGA,-0.09 kcal/mol
11,TGGACCACGTGTGTTT,0.05 kcal/mol
12,GTATGCACGTGTGAGA,0.09 kcal/mol
13,AGGTACACGTGACGTA,0.24 kcal/mol
14,TTCGTCACGTGAGGGC,0.27 kcal/mol
15,TAGGTCACGTGGGTTT,0.04 kcal/mol
16,GGGGACACGTGTGCCG,0 kcal/mol
17,CCATTCACGTGGGGTG,0.13 kcal/mol
18,TGCTACACGTGATGTG,0.1 kcal/mol
19,TACTGCACGTGGTTTT,-0.16 kcal/mol
20,CTGGGCACGTGTGGAG,-0.03 kcal/mol
21,CGGGGCACGTGTTCGT,0.02 kcal/mol
22,GGGAGCACGTGGATCG,0.02 kcal/mol
23,CTTGACACGTGTGTGG,0.09 kcal/mol

row,Sequence,relative binding free energy
1,GTTGGCACGTGGGGCC,-0.15 kcal/mol
2,GGTGTCACGTGATCTG,0.17 kcal/mol
3,ATGCTCACGTGGGGGC,-0.07 kcal/mol
4,TTTAACACGTGTGTTT,0.01 kcal/mol
5,TGACGCACGTGAGTGA,0.16 kcal/mol
6,GTAGTCACGTGGGCTC,0.2 kcal/mol
7,GTATGCACGTGGCGGT,0 kcal/mol
8,AGGCACACGTGGGTGG,-0.08 kcal/mol
9,TGACGCACGTGATGTT,0 kcal/mol
10,TGTCGCACGTGGGAAT,-0.14 kcal/mol
11,TTAGGCACGTGTCAGT,0.01 kcal/mol
12,GAAAGCACGTGTTTGT,-0.13 kcal/mol
13,TGCTACACGTGTGGGA,0.04 kcal/mol
14,GACTTCACGTGTGATG,0.49 kcal/mol
15,TGTGACACGTGCTGTG,-0.08 kcal/mol
16,ATGTACACGTGGCTTT,-0.02 kcal/mol
17,TTGGACACGTGTCGTT,0.09 kcal/mol
18,ATATGCACGTGGTGAG,-0.15 kcal/mol
19,GGGTACACGTGGTGGC,0.15 kcal/mol
20,GTGATCACGTGGTGAA,0.07 kcal/mol
21,AATAGCACGTGTAAAG,0.13 kcal/mol
22,AGGAGCACGTGTGACT,0.04 kcal/mol
23,GGCAGCACGTGTGTGG,0.05 kcal/mol

row,Sequence,relative binding free energy
1,TGGAGCACGTGTTTGA,-0.09 kcal/mol
2,GGACTCACGTGTGGCG,0.43 kcal/mol
3,TTGTCCACGTGCTTTT,-0.04 kcal/mol
4,GTAAACACGTGAATTG,0.27 kcal/mol
5,AAGGTCACGTGGGGGC,0.03 kcal/mol
6,GATAGCACGTGTATAG,0.02 kcal/mol
7,TTACGCACGTGGTGTT,-0.21 kcal/mol
8,CGATGCACGTGATGGT,0.02 kcal/mol
9,TGTGACACGTGGAGAA,-0.06 kcal/mol
10,TGGTGCACGTGTTTTG,0.07 kcal/mol
11,GTGGCCACGTGAAGTG,0.24 kcal/mol
12,TTTCTCACGTGTATAT,0.13 kcal/mol
13,GTGTACACGTGGATGA,-0.01 kcal/mol
14,GATTGCACGTGATTGT,0.25 kcal/mol
15,GGTGACACGTGGTACT,-0.04 kcal/mol
16,TAATGCACGTGAGTTA,0.1 kcal/mol
17,GGATGCACGTGCGGGA,0.05 kcal/mol
18,AGGAGCACGTGGAGGA,-0.09 kcal/mol
19,TAGGTCACGTGAGGCT,0.34 kcal/mol
20,ATTGACACGTGGAGAG,-0.04 kcal/mol
21,ATCCGCACGTGTGTGT,0 kcal/mol
22,TGAGTCACGTGATGTT,0.22 kcal/mol
23,TCTGTCACGTGATGTA,0.16 kcal/mol

row,Sequence,relative binding free energy
1,GCGGTCACGTGAAGGT,0.3 kcal/mol
2,TTGGACACGTGCTGGG,0.08 kcal/mol
3,GTTGGCACGTGGATAC,0.05 kcal/mol
4,TTTTGCACGTGAACTT,0.26 kcal/mol
5,AGTAACACGTGGTGTA,-0.11 kcal/mol
6,CCGTTCACGTGGTGTG,0.09 kcal/mol
7,TGCATCACGTGGTTAA,0.13 kcal/mol
8,AACGTCACGTGGTATT,0.14 kcal/mol
9,AGGGGCACGTGCTCGA,-0.14 kcal/mol
10,GGAATCACGTGAAGGG,0.42 kcal/mol
11,ATGAGCACGTGCTTTT,-0.12 kcal/mol
12,TTTTGCACGTGGTTCT,-0.02 kcal/mol
13,GCTGGCACGTGTAGTA,0.11 kcal/mol
14,TGTTGCACGTGTTAAC,0.05 kcal/mol
15,ATGTGCACGTGTAGTC,-0.11 kcal/mol
16,GGGTACACGTGCGTAG,-0.11 kcal/mol
17,CGAAACACGTGGTGTT,-0.01 kcal/mol
18,AGTTACACGTGGTCGG,0.11 kcal/mol
19,ATTTTCACGTGACGGA,0.41 kcal/mol
20,TCATGCACGTGCGGGT,0.03 kcal/mol
21,GGCAGCACGTGTGTAT,0.13 kcal/mol
22,TGCGTCACGTGAGGGC,0.33 kcal/mol
23,AGTTCCACGTGTCGGG,0.2 kcal/mol
